Test results: PubChem BioAssay AID624296 (National Center for Advancing Translational Sciences (NCATS), 2012)
Hit rate of the full screen: of about 350,000 compounds, about 9,900 (2.8%) were called active. Inconclusive means that the source gave no clear call. Such entries were picked first, then a sample of the others. Calls follow the shape of the dose curve; as a rule, active = well fitted activation curve with a large enough effect; inconclusive = small, poorly fitted or top-dose-only effect; inactive = no such curve, though single readings can be large or run the other way. No potency is given beside an inconclusive call; the fits are too rough.

Assay: A quantitative high throughput screen for small molecules that induce DNA re-replication in MCF 10a normal breast cells. Also: nearly all actives have a fitted effect of over 50% in size. As to activity, positive = re-replication: % of control where 0% means no effect.
Settings: MCF 10A DNA re-replication, Hoechst nuclear intensity, 48 h; activity, positive = re-replication: at 46.1 µM (top of the series)
Potency is read from the fitted curve at half-maximal effect; tags tell the direction and shape of the fitted curve.

SMILES | activity, positive = re-replication | Potency
Nc1cc(S(=O)(=O)N2CCCCC2)ccc1N1CCOCC1 | inactive: -32.1% | 
COc1ccc(C(=O)N2CCN(c3ccccc3OC)CC2)cc1 |  | inconclusive [activator, single point]
C[C@@H]1CCCCCCCCC(=O)OCCN(C(=O)OC(C)(C)C)[C@H](C)CCCCCCCCC(=O)OCCN(C(=O)OC(C)(C)C)[C@H](C)CCCCCCCCC(=O)OCCN1C(=O)OC(C)(C)C | inactive: 21.1% | 
Cc1ccc(NC(=O)CN(C)C(=O)c2ccc(COc3ccccc3)cc2)cc1 |  | inconclusive [activator, single point]
CN(Cc1ccccc1)c1nc2c(c(=O)n(C)c(=O)n2C)n1CCCc1ccccc1 |  | active: 25.9 µM
CC1CCCC2(C1)NC(=S)N(c1ccccc1)N2 (stereo not given) | inactive: 14.5% | 
Cc1ccc(OCCCCCN2CCOCC2)c(Cl)c1 |  | inconclusive [activator, partial curve]
CCOc1ccc(C(=O)NCC(c2cccs2)N2CCOCC2)cc1 (stereo not given) |  | inconclusive [activator, single point]
O=C1c2ccccc2-c2nnc(-c3ccc(O)cc3)cc21 |  | inconclusive [activator, single point]
N#Cc1c(NC(=O)C2CC2)sc2c1CCCCC2 |  | inconclusive [activator, partial curve]
O=C(Nc1ccc(Cl)cn1)c1cccc2c(Br)cccc12 |  | inconclusive [activator, partial curve, poor fit]
COc1cc(/C=C/C=C2/CC/C(=C/C=C/c3ccc(O)c(OC)c3)C2=O)ccc1O |  | inconclusive [activator, partial curve]
CCCCCC[C@@H]([C@@H](C)O)n1cnc2c(N)ncnc21 |  | inconclusive [activator, single point]
COC(=O)c1sc(-c2cccs2)cc1NC(=O)/C=C/C(=O)O |  | inconclusive [activator, single point]
O=S(=O)(NC1CCCCC1NCc1ccco1)c1ccc(Cl)cc1 (stereo not given) |  | inconclusive [activator, single point]
CCOc1ccc(OCCCC(=O)ON=C(N)c2ccccc2C)cc1 | inactive: -0.855% | 
COCc1ccc(-c2c(-c3ccc(OC)cc3)oc(=O)c3cc(OC)c(OC)cc23)cc1 |  | active: 2.59 µM
Cc1cc(C)nc(NC(=O)CSc2nccc(C)n2)n1 | inactive: 2% | 

SMILES | activity, positive = re-replication | Potency
CC[C@]1(c2cccc(C)c2)C(=O)N(C(=O)OC)N1C(=O)OC |  | inconclusive [activator, single point]
CC(C)C1=CC(=Nc2ccc(S(N)(=O)=O)cc2)C=C(C(C)C)C1=O |  | inconclusive [activator, single point]
Cc1ccc(C(=O)c2ccccc2C(=O)OCC(=O)N2CC(C)CC(C)C2)cc1 (stereo not given) |  | inconclusive [activator, single point]
N=C1SCC(=O)N1c1ccccc1Cl | inactive: 1.59% | 
COc1ccc(-c2cc3ccccc3n2CC(O)CN2CCOCC2)cc1 (stereo not given) |  | inconclusive [activator, single point]
COC(=O)[C@]1(C)N[C@H](CN(C)C(=O)Nc2ccc(C)cc2)[C@@H]2C(=O)N(C)C(=O)[C@@H]21 | inactive: -20.5% | 
COc1ccc(C(=O)C[n+]2cn(C(F)F)c3ccccc32)c(F)c1 |  | inconclusive [activator, partial curve, poor fit]
COc1cccc(CNC(=O)Cc2ccc(-c3ccccc3)cc2)c1 |  | active: 10.3 µM
CNC(=S)NC1(C)CCS(=O)(=O)C1 (stereo not given) |  | inconclusive [activator, full curve, poor fit]
CSc1cc(-c2ccccc2)n(Cc2ccccc2Cl)c(=O)c1C#N |  | active: 3.66 µM
CN(CC(=O)Nc1ccccc1Cl)C(=O)COC(=O)CCN1C(=O)C2CC=CCC2C1=O (stereo not given) | inactive: -2.86% | 
C=C(NC(=O)C(=C)NC(=O)c1csc(C2=N[C@@H]3c4csc(n4)[C@@H]4NC(=O)c5csc(n5)[C@@H]([C@](C)(O)[C@H](C)O)NC(=O)[C@@H]5CSC(=N5)/C(=C/C)NC(=O)[C@@H]([C@H](C)O)NC(=O)c5csc(n5)[C@]3(CC2)NC(=O)[C@@H](C)NC(=O)C(=C)NC(=O)[C@@H](C)NC(=O)[C@@H]([C@@H](C)CC)N[C@H]2C=Cc3c([C@H](C)O)cc(nc3[C@@H]2O)C(=O)O[C@H]4C)n1)C(N)=O |  | active: 8.05 µM
Cc1ccc(Oc2coc3cc(O)ccc3c2=O)cc1 | inactive: -9.66% | 
CCOC(=O)C[C@H]1c2ccc(C(F)(F)F)cc2S(=O)(=O)N1Cc1ccccc1 | inactive: 7.46% | 
c1ccc(-c2c3ccccc3nc3[nH]c4ccccc4c23)cc1 |  | inconclusive [activator, partial curve, poor fit]
COc1cccc(CNc2nc3ccccc3n2CCN2CCCCC2)c1OC |  | inconclusive [activator, partial curve, poor fit]
CCCCCCn1c(=O)[nH]c2nc3cc(N)ccc3nc2c1=O |  | inconclusive [activator, single point]
